In all, about 81,000 sequences were measured (“one-hybrid fitness for binding NBS DNA”: median about -0.1, highest 2% from about 0.36 on). The list shows a part of the results.
B1: Caulobacter ParB omega fusion; a variant is named by its letters at X, in order, B8GW30 (parent)
chain: MESVVVGEPGMSEGRRGLGRGLSALLGEVDAAPAQAPGEQLGGSREAPIEILQRNPDQPRRTFREEDLEDLSNSIREKGVLQPILVRPSPDTAGEYQIVAGERAWRAAQRAGLKTVPIMVRELDDLAVLEIGIIENVQRADLNVLEEALSYKVLMEKFERTQENIAQTIGKSXSHVANXMRLLXLPDEVQSYLVSGELTAXHARAIAAAADPVALAKQIIEGGLSVRETEALARKAPNLSAGKSKGGRPPRVKDTDTQALESDLSSVLGLDVSIDHRGSTGTLTITYATLEQLDDLCNRLTRGI

Variants of: B1
Experiment: one-hybrid fitness for binding NBS DNA (the Noc-binding site; scaled: cognate 1, non-cognate 0); higher = stronger binding
Conditions: with NBS DNA site
Outline: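 Bacterial one-hybrid selection in E. coli USO rpoZ- hisB- pyrF- with a HIS3 reporter carrying the site 19 bp from the promoter, screening Caulobacter ParB libraries with four specificity codons randomised (NNS). Cells grew 48 hours at 37°C on M9-minus-histidine plus 0.1 mM IPTG and 5 mM 3-AT. Plasmids before and after selection were Illumina-sequenced, three replicate libraries pooled, and variants under 10 reads dropped. Fitness is the log change in variant-to-wild-type read ratio, rescaled to cognate 1, non-cognate 0.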

| Variant | one-hybrid fitness for binding NBS DNA |
| --- | --- |
| SQEY | ≤ 0.2 |
| PLQL | ≤ 0.2 |
| CVNC | ≤ 0.2 |
| SLPD | ≤ 0.2 |
| MIWG | ≤ 0.2 |
| GDSP | ≤ 0.2 |
| YCDY | ≤ 0.2 |
| TQQI | ≤ 0.2 |
| IQML | ≤ 0.2 |
| HCIS | ≤ 0.2 |
| QHQC | ≤ 0.2 |
| RSRP | ≤ 0.2 |
| VTCT | ≤ 0.2 |
| KSHE | ≤ 0.2 |
| RSRA | 0.317 |
| MLEF | ≤ 0.2 |
| PCGH | ≤ 0.2 |
| SSQI | ≤ 0.2 |
| HAQS | ≤ 0.2 |
| KTRI | ≤ 0.2 |
| IRME | ≤ 0.2 |
| ANKL | ≤ 0.2 |
| YAEG | ≤ 0.2 |
| LGML | ≤ 0.2 |
| QAYY | ≤ 0.2 |
| VDHL | ≤ 0.2 |

| Variant | one-hybrid fitness for binding NBS DNA |
| --- | --- |
| NADS | ≤ 0.2 |
| RYTE | ≤ 0.2 |
| TCMR | ≤ 0.2 |
| CRTN | ≤ 0.2 |
| WARC | ≤ 0.2 |
| HRKW | ≤ 0.2 |
| LGTA | ≤ 0.2 |
| YLIS | ≤ 0.2 |
| MDRP | ≤ 0.2 |
| RYDE | ≤ 0.2 |
| AVYS | ≤ 0.2 |
| SIVG | ≤ 0.2 |
| QGFT | ≤ 0.2 |
| GFNS | ≤ 0.2 |
| RDAF | ≤ 0.2 |
| QDWV | ≤ 0.2 |
| PIYR | ≤ 0.2 |
| QFTQ | ≤ 0.2 |
| EMYL | ≤ 0.2 |
| ANNG | ≤ 0.2 |
| NRVQ | ≤ 0.2 |
| QIDH | ≤ 0.2 |
| MITP | ≤ 0.2 |
| IYHT | ≤ 0.2 |
| EEQR | ≤ 0.2 |
| KVNY | ≤ 0.2 |

| Variant | one-hybrid fitness for binding NBS DNA |
| --- | --- |
| HYHS | ≤ 0.2 |
| HQIN | ≤ 0.2 |
| HHWC | ≤ 0.2 |
| VGNC | ≤ 0.2 |
| NGRL | ≤ 0.2 |
| QYVG | ≤ 0.2 |
| DTTY | ≤ 0.2 |
| NVAS | ≤ 0.2 |
| KQEN | ≤ 0.2 |
| AVLY | ≤ 0.2 |
| ESWE | ≤ 0.2 |
| STNG | ≤ 0.2 |
| WDEG | ≤ 0.2 |
| DTSK | ≤ 0.2 |
| QHQF | ≤ 0.2 |
| HMDG | ≤ 0.2 |
| WFTS | ≤ 0.2 |
| AVMG | ≤ 0.2 |
| TNIM | ≤ 0.2 |
| QTGW | ≤ 0.2 |
| LHRF | ≤ 0.2 |
| EGCS | ≤ 0.2 |
| SREP | ≤ 0.2 |
| DHRI | ≤ 0.2 |
| IHVW | ≤ 0.2 |
| RCHF | ≤ 0.2 |

| Variant | one-hybrid fitness for binding NBS DNA |
| --- | --- |
| TGNS | ≤ 0.2 |
| IQLT | ≤ 0.2 |
| TLST | ≤ 0.2 |
| LHLI | ≤ 0.2 |
| PGNA | ≤ 0.2 |
| DSRV | ≤ 0.2 |
| RCLF | ≤ 0.2 |
| LNNC | ≤ 0.2 |
| MKYK | ≤ 0.2 |
| EYDV | ≤ 0.2 |
| HLMG | ≤ 0.2 |
| HAAN | ≤ 0.2 |
| FHAC | ≤ 0.2 |
| HFCC | ≤ 0.2 |
| CWPL | ≤ 0.2 |
| QRAQ | 0.412 |
| AIIT | ≤ 0.2 |
| QLHW | ≤ 0.2 |
| TYAI | ≤ 0.2 |
| TVMG | ≤ 0.2 |
| QKEM | ≤ 0.2 |
| NLNC | ≤ 0.2 |
| VSCS | ≤ 0.2 |
| QITE | ≤ 0.2 |
| NPPY | ≤ 0.2 |
| ELPF | ≤ 0.2 |

| Variant | one-hybrid fitness for binding NBS DNA |
| --- | --- |
| LGYR | ≤ 0.2 |
| QGWD | ≤ 0.2 |
| VNQT | ≤ 0.2 |
| RVCW | ≤ 0.2 |
| RDSY | ≤ 0.2 |
| NFKP | ≤ 0.2 |
| WKTS | ≤ 0.2 |
| RNEV | 0.385 |
| ICAG | ≤ 0.2 |
| AWKV | ≤ 0.2 |
| QQLN | ≤ 0.2 |
| IKRV | ≤ 0.2 |
| TADV | ≤ 0.2 |
| KLPG | ≤ 0.2 |
| RQIC | ≤ 0.2 |
| DGNT | ≤ 0.2 |
| VRWT | ≤ 0.2 |
| EARM | ≤ 0.2 |
| RQWD | ≤ 0.2 |
| EVST | ≤ 0.2 |
| QVMT | 0.228 |
| DSVS | ≤ 0.2 |
| TDNY | ≤ 0.2 |
| KFHC | ≤ 0.2 |
| CYRV | ≤ 0.2 |
| CGFT | ≤ 0.2 |

| Variant | one-hybrid fitness for binding NBS DNA |
| --- | --- |
| YWPL | ≤ 0.2 |
| TASM | ≤ 0.2 |
| NPFD | ≤ 0.2 |
| PPAL | ≤ 0.2 |
| GIVL | ≤ 0.2 |
| CILD | ≤ 0.2 |
| WSFC | ≤ 0.2 |
| EPHR | ≤ 0.2 |
| QGTI | ≤ 0.2 |
| HTHC | ≤ 0.2 |
| PGEL | ≤ 0.2 |
| TVVC | ≤ 0.2 |
| HSAY | ≤ 0.2 |
| FYDL | ≤ 0.2 |
| KLVD | ≤ 0.2 |
| HSGI | ≤ 0.2 |
| DAPV | ≤ 0.2 |
| DPKD | ≤ 0.2 |
| RGIS | ≤ 0.2 |
| IHYV | ≤ 0.2 |
| FDLS | ≤ 0.2 |
| CNFF | ≤ 0.2 |
| PPTK | ≤ 0.2 |

Reference: a collection of fitness landscapes (doi:10.1016/j.celrep.2020.107928)
